Assay results published in ChEMBL document CHEMBL4888484, “Replenishing the malaria drug discovery pipeline: Screening and hit evaluation of the MMV Hit Generation Library 1 (HGL1) against asexual blood stage Plasmodium falciparum ,using a nano luciferase reporter read-out” (2022).
In all, about 150,000 compounds went through this assay and about 540 (0.36%) showed an effect of 50% or more. The list shows a part of the results.

The molecules below were run on Plasmodium falciparum (assay: Primary screen in NF54 nanoGlo assay, in single point, at 2uM, 72h; a lower Z score goes with more inhibition). Conditions: timepoint 72 hour.
Format: functional, Erythrocyte
`CCN1CC[C@H](NC(=O)OCC(F)(F)F)C(F)(F)C1` was tested, and the “% Inhibition” value was -8% and the Z score was 1.7. With `CS(=O)(=O)N1C[C@H]2CC[C@@H](C1)N(C(=O)c1cc(F)c(F)cc1Cl)C2` the “% Inhibition” value was 6% and the Z score was -1.12. For `Cc1ccc(CN2C(=O)OC(c3ccc(NC(=O)c4ccco4)cc3)C2C(=O)N(C)Cc2ccccc2)cc1` (centres undefined), the “% Inhibition” value was -20% and the Z score was 2.84. `C[C@H]1CN(c2ccc(F)cc2C#N)CCN1S(C)(=O)=O` was tested, and the “% Inhibition” value was -1% and the Z score was 0.07. In the case of `Cc1cc(C)n(Cc2nc(C3CN4CCCCC4CO3)no2)n1` (centres undefined), the “% Inhibition” value is reported as -2% and the Z score is reported as 0.36. `O=C(NCc1ccccc1)c1cc2n(n1)CCCN(Cc1ccc(Cl)cc1)C2=O` was tested, and the “% Inhibition” value was 2% and the Z score was -0.4. In the case of `Cc1nc2cc(CNC(=O)CC3CC3)ccc2n1C1CC1`, the “% Inhibition” value is reported as -4% and the Z score is reported as 0.38. `CCc1ccccc1NC(=O)CN(C)[C@@H](CC)C(=O)Nc1cc(C)on1` was tested, and the “% Inhibition” value was -7% and the Z score was 1.22. In the case of `CC1(C)COCCN1CCNC(=O)N1CCO[C@H](c2ccc(F)cc2Cl)C1`, the “% Inhibition” value is reported as -4% and the Z score is reported as 0.74. With `C[C@@H]1CN(c2cccc(C(F)(F)F)n2)CC(=O)N1` the “% Inhibition” value was -5% and the Z score was 0.67. With `COc1ccc(C(=O)N(CC(=O)N2CCN(c3ccc(-c4ccc(OC)cc4)nn3)CC2)Cc2ccccc2)cc1` the “% Inhibition” value was -4% and the Z score was 0.39. With `COC1CCN(Cc2cn(Cc3ccccc3OC3CC3)nn2)CC1` the “% Inhibition” value was 14% and the Z score was -1.84. In the case of `CCCc1nc(CN(C)C(=O)Cc2c(C)n[nH]c2C)no1`, the “% Inhibition” value is reported as -2% and the Z score is reported as 0.37. In the case of `CCN(c1ccc2sc(C(=O)N3CCCCCC3)cc2c1)S(C)(=O)=O`, the “% Inhibition” value is reported as -17% and the Z score is reported as 2.23. With `CC1CC2CCCCC2N1C(=O)NCCCOC1CCOC1` (centres undefined) the “% Inhibition” value was -10% and the Z score was 1.14. In the case of `CCCN(C[C@H]1CCCO1)C(=O)c1cc(NS(=O)(=O)c2ccccc2)cc2nc(C)n(CC)c12`, the “% Inhibition” value is reported as -9% and the Z score is reported as 1.06. In the case of `COc1ccsc1C(=O)N(C[C@H]1CCCO1)c1ccncc1`, the “% Inhibition” value is reported as -11% and the Z score is reported as 1.19. With `Cc1nn(C)c(C)c1-c1ccnc(N2CCN(Cc3cccc(F)c3)C(=O)C2)n1` the “% Inhibition” value was -23% and the Z score was 3.36. With `CCc1nc(-c2ccc(C)c(S(=O)(=O)N3CCC(C(=O)N4CCCCC4)CC3)c2)no1` the “% Inhibition” value was -3% and the Z score was 0.35. For `CN(C[C@@H]1C[C@H](F)CN1Cc1nccn1C)S(=O)(=O)CC1CCC1(F)F` (some centres undefined), the “% Inhibition” value was 6% and the Z score was -0.82. In the case of `CC(C)(c1nnc2n1CCCCC2)n1cc(N)cn1`, the “% Inhibition” value is reported as 35% and the Z score is reported as -3.91. In the case of `COC(=O)[C@@H](Cc1cccnc1)NC(=O)[C@H]1CN(S(=O)(=O)c2ccccc2)CCN1C(=O)N1CCOCC1`, the “% Inhibition” value is reported as -14% and the Z score is reported as 2.26.
